Where “and” joins values, the source holds several entries; their conditions need not be identical. Equal entries are not always repeated. The shares of active, inactive and inconclusive entries below differ from those in the screen. For some of these results: Potencies of inconclusive entries are doubtful fits and often do not repeat. More than one record can exist for a structure, and the calls need not agree. Calls of active or inactive are those of the source. Unless noted, calls come from the whole dose curve; as a rule, active = well fitted curve in the direction sought with a large enough effect; inconclusive = small, poorly fitted or top-dose-only effect, or another doubt; inactive = no such curve, though single readings can be large; an effect the other way counts as inactive or inconclusive.
What was measured:
[1] = biological target: Cytochrome P450 2C9 (Homo sapiens) (UniProt P11712); test: Cytochrome P450 family 2 subfamily C member 9 (CYP2C9) small molecule antagonists: luciferase biochemical (cell-free) qHTS assay (AID 1645842; active = well fitted curve in the direction sought with a large enough effect in the repeat runs; inconclusive = weak or mixed curves; inactive = no such curve, though single readings can be large; an effect the other way counts as inactive or inconclusive; note: nearly all actives have a fitted effect of over 55% in size)
Outline: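 Luminescence, after 20 min with luciferin detection reagent, reflected CYP2C9 turnover during a 1 h NADPH-driven reaction at 37C. Enzyme-substrate mix contained 0.4% bovine serum albumin and was preincubated with compound 10 min at room temperature.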

[2] = biological target: Phospholipid hydroperoxide glutathione peroxidase GPX4 (Homo sapiens) (UniProt P36969); test: Primary qHTS Assay for Inhibitors of Recombinant Selenoprotein Glutathione Peroxidase 4 (GPX4) (AID 1845192); note: nearly all actives have a fitted effect of over 65% in size
Outline: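 NADPH consumption, followed by fluorescence at 340/450 nm between 0 and 15 min, reports GPX4 activity via coupled glutathione reductase (100 nM). Enzyme 200 nM was pre-exposed to compound 30 min; 0.5 mM cumene hydroperoxide and 1 mM GSH served as substrates.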

Tov112D = test: Primary qHTS to identify gynecologic anti-cancer compounds using libraries of approved drugs and bioactive compounds (AID 1345084); details: Gynecologic cancer cell panel viability, ATPlite luminescence, 48 h; activity change, negative = cytotoxicity: at 57.5 µM (top of the series); note: nearly all actives have a fitted effect of over 55% in size
Outline: (§1)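 ATP-based viability (ATPlite), 1,000 cells/well, 16 h pre-incubation, 48 h compound at 37 C, 5% CO2, 15 min RT before read.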

[3] = biological target: Glutathione peroxidase 1 (Homo sapiens) (UniProt P07203); test: Primary qHTS Assay for Inhibitors of Recombinant Selenoprotein Glutathione Peroxidase 1 (GPX1) (AID 1845191); details: activity, negative = inhibition: at 48.8 µM (top of the series); note: nearly all actives have a fitted effect of over 65% in size
Outline: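 10 nM GPX1 + cpd, 30 min RT; start w/ 1 mM GSH, 0.5 mM cumene hydroperoxide, 0.5 mM NADPH, 100 nM GR, 0.01% BSA; buffer 50 mM Tris-HCl pH 7.5, 2 mM EDTA, 150 mM NaCl; Fl 340/450, 0 & 15 min.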

[4] = qHTS of pediatric cancer cell lines to identify multiple opportunities for drug repurposing: Primary screen for LAN-5 cells (AID 1347100)
Outline: (§2)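 Cells (500-1,000/well) rested 5 h, then received compounds for 48 h; metabolically active cells were measured by CellTiter-Glo luminescence. Final concentrations spanned up to 46 µM (MIPE, 11-point) or 0.59 nM-46 µM (NPC, 8-point) in primary screens, 11-point in follow-ups.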

[5] = A High-Content qHTS Against Drug Library for the Identification of Small Molecules that Inhibit DYT1 Early Onset Primary Dystonia-Associated Cell Pathology (AID 1645839; calls by dose curve)
Outline: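 In this high-content image screen, delE TorsinA mislocalization in inducible Flp-In 293 cells is scored as %pathology, with cell count serving as the counterscreen. Compound exposure lasts 48 h under tetracycline induction in reduced-serum medium.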

[6] = qHTS of pediatric cancer cell lines to identify multiple opportunities for drug repurposing: Primary screen for BT-12 cells (AID 1347101); note: nearly all actives have a fitted effect of over 25% in size
Outline: as §2

[7] = qHTS of pediatric cancer cell lines to identify multiple opportunities for drug repurposing: Primary screen for OHS-50 cells (AID 1347103); note: nearly all actives have a fitted effect of over 40% in size
Outline: as §2

MKL-2 = test: qHTS assay to identify novel small-molecules to repurpose for Merkel cell carcinoma treatment (AID 1296009); details: MCC and control cell lines, CellTiter-Glo viability, 72 h; activity change, negative = cytotoxicity: at 46 µM (top of the series); note: nearly all actives have a fitted effect of over 60% in size
Outline: (§3)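 After compound transfer in DMSO, plates were kept 72 hr at 37 degree celsius. Luminescent ATP signal from CellTiter-Glo served as viability measure, normalized against DMSO and no-cell controls.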

[8] = qHTS of pediatric cancer cell lines to identify multiple opportunities for drug repurposing: Primary screen for BT-37 cells (AID 1347094)
Outline: (§4)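 Phenotypic viability qHTS, 48 h compound exposure, CellTiter-Glo luminescence read-out; multi-concentration dosing so that potency and efficacy derive directly from the primary screen's curves.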

[9] = Primary qHTS for small molecule stabilizers of the endoplasmic reticulum resident proteome: Secreted ER Calcium Modulated Protein (SERCaMP) assay (AID 1508630); details: SH-SY5Y GLuc-SERCaMP (Gaussia luciferase released on ER calcium loss) secretion, thapsigargin, luminescence; series mostly up to 38.4 µM
Outline: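 GLuc-SERCaMP-expressing SH-SY5Y cells, pretreated 16 h with compound, are challenged with thapsigargin to empty ER calcium stores; after 4 h, coelenterazine is added directly to the medium and luminescence is imaged.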

CP335 = test: qHTS profiling for inhibitors of Plasmodium falciparum proliferation (AID 504749); note: nearly all actives have a fitted effect of over 60% in size; details: P. falciparum in erythrocytes, SYBR Green DNA, 72 h; series mostly up to 28.7 µM
Outline: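 Three-day growth assay of blood-stage parasites in erythrocytes (0.3% parasitemia, 2.5% hematocrit) at 37 C, 5% CO2, quantified by SYBR Green DNA staining after overnight detergent lysis.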

WaGa = test: qHTS assay to identify novel small-molecules to repurpose for Merkel cell carcinoma treatment (AID 1296009); details: MCC and control cell lines, CellTiter-Glo viability, 72 h; series mostly up to 46 µM; note: nearly all actives have a fitted effect of over 60% in size
Outline: as §3

[10] = qHTS of pediatric cancer cell lines to identify multiple opportunities for drug repurposing: Primary screen for SK-N-SH cells (AID 1347098); details: SK-N-SH viability, CellTiter-Glo luminescence, 48 h; activity change, negative = cytotoxic: at 57 µM (top of the series); note: nearly all actives have a fitted effect of over 65% in size
Outline: as §2

HeLa = test: Primary qHTS to identify gynecologic anti-cancer compounds using libraries of approved drugs and bioactive compounds (AID 1345084); details: Gynecologic cancer cell panel viability, ATPlite luminescence, 48 h; series mostly up to 57.5 µM; note: nearly all actives have a fitted effect of over 55% in size
Outline: as §1

[11] = qHTS of pediatric cancer cell lines to identify multiple opportunities for drug repurposing: Primary screen for SK-N-MC cells (AID 1347093); details: SK-N-MC viability, CellTiter-Glo luminescence, 48 h; activity change, negative = cytotoxic: at 46 µM (top of the series)
Outline: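 Metabolically active cells were quantified by ATP-dependent luminescence (CellTiter-Glo, 15 min at room temperature) following 48 h treatment. Cells had been plated at 500-1,000 per well and settled for 5 h beforehand.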

[12] = qHTS of pediatric cancer cell lines to identify multiple opportunities for drug repurposing: Primary screen for Rh41 cells (AID 1347108); note: nearly all actives have a fitted effect of over 70% in size
Outline: as §4

[13] = Drug repurposing screens with cells derived from glioblastoma tumor samples (AID 1345199); details: GBM patient neurospheres viability, ATP luminescence, 48 h; Potency: tumour line A unless noted; series mostly up to 46 µM; note: nearly all actives have a fitted effect of over 40% in size
Outline: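 Four patient lines of CD133+ GBM neurospheres were screened at several concentrations; hits were retested in those lines plus three slower-growing GBM lines, using 48-hour treatment and ATP-based viability.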
Potency is the fitted concentration of half-maximal effect; tags give direction and shape of the fitted curve.

UniProt P36969, sequence (P36969 whole entry, looked up): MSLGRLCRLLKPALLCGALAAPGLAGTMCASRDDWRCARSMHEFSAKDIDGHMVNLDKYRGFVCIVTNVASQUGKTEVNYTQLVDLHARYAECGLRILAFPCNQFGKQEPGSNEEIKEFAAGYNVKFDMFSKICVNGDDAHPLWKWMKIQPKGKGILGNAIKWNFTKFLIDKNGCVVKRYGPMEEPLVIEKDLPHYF
UniProt P11712, sequence (P11712 whole entry, looked up): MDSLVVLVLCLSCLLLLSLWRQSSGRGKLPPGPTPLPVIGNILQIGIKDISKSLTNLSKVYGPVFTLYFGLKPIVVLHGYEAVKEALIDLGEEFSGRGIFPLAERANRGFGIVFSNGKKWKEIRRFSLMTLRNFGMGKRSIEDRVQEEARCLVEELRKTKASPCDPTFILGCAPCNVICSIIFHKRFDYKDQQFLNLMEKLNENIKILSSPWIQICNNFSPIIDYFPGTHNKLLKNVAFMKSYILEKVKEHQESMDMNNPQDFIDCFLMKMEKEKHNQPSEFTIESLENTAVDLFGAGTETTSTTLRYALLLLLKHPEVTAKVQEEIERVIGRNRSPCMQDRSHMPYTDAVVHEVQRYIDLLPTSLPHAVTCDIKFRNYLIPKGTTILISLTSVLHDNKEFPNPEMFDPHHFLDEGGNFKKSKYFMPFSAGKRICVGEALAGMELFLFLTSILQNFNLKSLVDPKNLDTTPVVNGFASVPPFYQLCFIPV
UniProt P07203, sequence (P07203 whole entry, looked up): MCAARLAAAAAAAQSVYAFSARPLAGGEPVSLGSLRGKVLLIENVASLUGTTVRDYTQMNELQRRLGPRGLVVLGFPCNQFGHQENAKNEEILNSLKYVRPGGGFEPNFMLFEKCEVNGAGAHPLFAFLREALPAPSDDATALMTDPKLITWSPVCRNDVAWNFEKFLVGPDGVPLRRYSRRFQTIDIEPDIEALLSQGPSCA

N[C@@H]1c2cccnc2[C@H](OC(=O)N2CCC(n3c(=O)[nH]c4ncccc43)CC2)CC[C@H]1c1cccc(F)c1F
Potency [1]: inconclusive: 10.7 µM [inhibitor, partial curve]

CCc1cc2c(cc1CC)CC(NCC(O)c1ccc(O)c3[nH]c(=O)ccc13)C2 (configuration not stated)
Potency [1]: inactive

CNc1ccc([N+](=O)[O-])cc1-n1cnc(-c2ccc(C(F)(F)F)cc2)c1
Potency [1]: active: 3.01 µM

O=C(NO)c1ccc(CC(=O)N(CCO)c2ccccc2)cc1
Potency [2]: inactive

CCOC(=O)N1CCC(CN(Cc2ccc(Cl)cc2)Cc2ccc([N+](=O)[O-])s2)C1 (configuration not stated)
Potency (Tov112D): inconclusive: 7.94 µM [cytotoxic, partial curve, poor fit]

Cn1cc(-c2ccc3c(c2)CCN3C(=O)Cc2cccc(C(F)(F)F)c2)c2c(N)ncnc21
Potency [3]: active: 18.3 µM | Potency [2]: inconclusive: 22.7 µM [inhibitor, single point]

O=C(Nc1ccc(S(=O)(=O)Nc2nccs2)cc1)C(c1ccccc1)c1ccccc1
Potency [3]: inconclusive: 10.1 µM [inhibitor, partial curve, poor fit]

c1ccc(-c2cnc(Nc3ccc(OCCN4CCCC4)cc3)s2)cc1
Potency [1]: inconclusive: 26.8 µM [inhibitor, single point] | Potency (Tov112D): inactive

CC(=O)O[C@]1(C(C)=O)CC[C@H]2[C@@H]3CCC4=CC(=O)CCC4=C3[C@@H](c3ccc(N(C)C)cc3)C[C@@]21C
Potency (Tov112D): inactive

O=C(NCc1ccc(OC(F)(F)F)cc1)C1c2c(F)cccc2C(=O)N1CCc1ccccn1 (configuration not stated)
Potency [1]: active: 3.79 µM

CC1(C)C(O)CCC2(C)C1C(O)C=C1COC(=O)C12O (configuration not stated)
Potency [2]: inactive

CCCc1ccc(OCC(=O)N2CCN(C(=O)COc3ccc(CCC)cc3OC)CC2)c(OC)c1
Potency [4]: inconclusive: 26.6 µM [cytotoxic, partial curve, poor fit] | Potency [5]: active: 11.2 µM | Potency [1]: inconclusive: 7.76 µM [inhibitor, single point]

O=C1C(CCS(=O)c2ccccc2)C(=O)N(c2ccccc2)N1c1ccccc1 (configuration not stated)
Potency [6]: inactive | Potency [7]: inactive | Potency (MKL-2): inconclusive: 26.6 µM [inhibitor, single point]

c1ccc(OCc2ccc(CCCN3CCOCC3)cc2)cc1
Potency [8]: inactive | Potency [4]: inconclusive: 33.5 µM [cytotoxic, single point] | Potency [6]: inconclusive: 17.4 µM [cytotoxic, partial curve] | Potency [7]: inconclusive: 24.6 µM [cytotoxic, single point] | Potency [9]: inactive | Potency [5]: inconclusive: 7.94 µM [inhibitor, partial curve, poor fit] | Potency (CP335): inactive | Potency (MKL-2): inconclusive: 16.8 µM [inhibitor, single point] | Potency (WaGa): inconclusive: 21.1 µM [inhibitor, partial curve, poor fit]

CC(C)(Cc1c[nH]c2ccccc12)NCC(O)COc1ccccc1C#N (configuration not stated)
Potency [8]: inactive | Potency [10]: inconclusive: 27.3 µM [cytotoxic, single point] | Potency [6]: inconclusive: 24.6 µM [cytotoxic, partial curve, poor fit] | Potency [9]: inactive and inconclusive: 10 µM [inhibitor, partial curve, poor fit] | Potency [5]: inconclusive: 17.8 µM [inhibitor, single point] | Potency (CP335): inconclusive: 12 µM [inhibitor, single point] | Potency (WaGa): inconclusive: 29.9 µM [inhibitor, single point] | Potency (HeLa): inactive

Oc1ccc(Cl)c2cccnc12
Potency [11]: inconclusive: 26.6 µM [cytotoxic, single point] | Potency [8]: inconclusive: 24.6 µM [cytotoxic, single point] | Potency [4]: active: 21.1 µM | Potency [7]: inconclusive: 38.9 µM [cytotoxic, single point] | Potency [12]: inconclusive: 16.8 µM [cytotoxic, single point] | Potency (CP335): inconclusive: 19 µM [inhibitor, single point] | Potency (MKL-2): inconclusive: 29.9 µM [inhibitor, single point] | Potency (WaGa): inconclusive: 29.9 µM [inhibitor, single point]

OCC(CO)N[C@H]1C[C@](O)(CO)[C@@H](O)[C@H](O)[C@H]1O
Potency [4]: inactive | Potency [5]: inactive | Potency (WaGa): inactive

CCN(CC)CC#CCOC(=O)C(O)(c1ccccc1)C1CCCCC1 (configuration not stated)
Potency [8]: inactive | Potency [4]: inconclusive: 18.7 µM [cytotoxic, partial curve, poor fit] | Potency [6]: inconclusive: 24.3 µM [cytotoxic, partial curve] | Potency [7]: inconclusive: 21.7 µM [cytotoxic, partial curve] | Potency [13]: active: 20.6 µM [tumour line C]

Reference: PubChem BioAssay (NCATS)
